# According to PubChem BioAssay AID1745853 (National Center for Advancing Translational Sciences (NCATS), 2022):
# Several values for one entry are separate records, joined by “and”; a condition that tells them apart may be missing. Equal values may be shown once. The list shows a part of the results. Shown are side measurements of this screen, not its main read-out; they come without a call.
# Assays:
# Assay in all cases: Primary Screen for Target Class Profiling of Small Molecule Inhibitors of Methyltransferases
# [1] = target: Glycine N-methyltransferase (Homo sapiens) (UniProt Q14749); conditions: purified enzyme, MTase-Glo SAH luminescence; measured here: GNMT inhibition; at 40 µM; stronger effect = lower value
# Procedure, shortened: (§1)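 Each enzyme was reacted with SAM and its substrate, with compounds tested once at 40 uM; SAH formed was read by MTase-Glo luminescence.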
# [2] = target: Guanidinoacetate N-methyltransferase (Homo sapiens) (UniProt Q14353); conditions: purified enzyme, MTase-Glo SAH luminescence; measured here: GAMT inhibition; at 40 µM; stronger effect = lower value
# Procedure, shortened: as §1
# [3] = target: Histamine N-methyltransferase (Homo sapiens) (UniProt P50135); conditions: purified enzyme, MTase-Glo SAH luminescence; measured here: HNMT inhibition; at 40 µM; stronger effect = lower value
# Procedure, shortened: as §1
# [4] = target: Nicotinamide N-methyltransferase (Homo sapiens) (UniProt P40261); conditions: purified enzyme, MTase-Glo SAH luminescence; measured here: NNMT inhibition; at 40 µM; stronger effect = lower value
# Procedure, shortened: as §1
# [5] = target: Phenylethanolamine N-methyltransferase (Homo sapiens) (UniProt P11086); conditions: purified enzyme, MTase-Glo SAH luminescence; measured here: PNMT inhibition; at 40 µM; stronger effect = lower value
# Procedure, shortened: as §1
# % is set by controls: 0 for no effect and ±100 for the full control effect.
SMILES,"activity change, negative = inhibition [1]","activity change, negative = inhibition [2]","activity change, negative = inhibition [3]","activity change, negative = inhibition [4]","activity change, negative = inhibition [5]"
CC1(C(=O)NC2CCCCCC2)Cn2c(cc3occc32)C(=O)N1Cc1cccc(Cl)c1 (stereo not given),-11.1%,2.07%,-3.02%,-11.5%,-2.13%
COCCNC(=O)CCc1nnc2n(Cc3ccc(Cl)cc3)c(=O)c3ccccc3n12,1.36%,4.81%,6.89%,7.01%,2.94%
Cc1ccc(NC(=O)c2cc3n(n2)CC(C)(C(=O)NC2CCCCC2)N(C)C3=O)c(C)c1 (stereo not given),6.93%,0%,8.52%,7.31%,4.1%
CCOc1ccc(CNC(=O)c2cc3n(n2)CC(C)(C(=O)NCc2ccc(C)cc2)N(C)C3=O)cc1 (stereo not given),4.89%,0%,6.14%,4.3%,5.14%
O=C1CCCCC(Cc2ccccc2)(C(=O)NCc2ccc(F)cc2)N1 (stereo not given),0.075%,3.25%,2.72%,-4.37%,-0.501%
CSc1ccc(CN2C(=O)c3cc(-c4ccccc4)nn3CC2(C)C(=O)NCc2ccccc2)cc1 (stereo not given),1.53%,2.31%,2.07%,-6.25%,-3.67%
CC(C)NCCCn1c(Sc2cc3c(cc2I)OCO3)nc2c(N)ncnc21,-7.87%,-5.81%,-31.8%,-37.8%,-36.9%
COC(=O)C1C(CC(C)=O)C=CC(O)C12Oc1cc(C)cc(O)c1C2=O (stereo not given),1.45%,2.28%,1.23%,-15.4%,-0.738%
C[C@@H]1CC[C@]2(C(=O)O)CC[C@]3(C)C(=CCC4[C@@]5(C)C[C@@H](O)[C@H](O)[C@@](C)(CO)C5CC[C@]43C)C2[C@H]1C (stereo not given in full),4.75%,9.27%,6.07%,-6.14%,8.03%
CCC(C)/C=C(C)/C=C/c1cc2c(cn1)C(=O)C(C)(OC(C)=O)C(O)=C2Cl (stereo not given),0%,-3%,-1.11%,-20.3%,-20.7%
O=C(c1cc(-c2ccc(F)cc2)n[nH]1)N1CC2CC(C1)[C@H]1CCCC(=O)N1C2 (stereo not given in full),-3.52%,3.44%,0.508%,-2.87%,17.5%
Cc1ccc(-c2nnn3c2nc(NCC2CCCO2)c2ccccc23)cc1 (stereo not given),-5.22%,3.26%,-2.22%,4.26%,-5.55%
Cc1ccc(C)c(C(=O)CSc2nnc3n(C)c(=O)c4ccc(C(=O)NC5CCCC5)cc4n23)c1,-5.07%,-5.25%,-3.13%,-6.05%,-5.71%
O=C1N(CC2CC2)CCCC12CCN(S(=O)(=O)N1CCOCC1)C2 (stereo not given),3.62%,-4.26%,-0.858%,-6.09%,-2.46%
CN(C)CCC(c1ccccc1)c1ccccn1 (stereo not given),5.92% and 6.68%,-0.159% and 6.64%,-1.54% and 7.92%,-11.5% and -8.02%,-4.89% and -1.36%
C[C@@H]1C(=O)O[C@H](C)[C@H]1C[C@@H](O)[C@](C)(O)[C@H]1CC[C@@]2(O)C3=CC(=O)[C@@H]4C[C@@H](O)[C@@H](O)C[C@]4(C)C3CC[C@]12C (stereo not given in full),4.9%,1.9%,9.29%,-7.74%,2.26%
Cc1cccc(Nc2nc(-c3ccncc3)cs2)c1,-89.8%,-85.6%,-93.6%,-86.8%,-91.8%
CCCNC(=O)N1CCCC2(CCC(=O)N(Cc3cnc(C)cn3)C2)C1 (stereo not given),-5.66%,-6.12%,-1.82%,-9.12%,-7.67%
Cc1ccc(NS(=O)(=O)c2ccc3c(c2)[C@H]2C=CC[C@H]2[C@@H](c2ccccc2Cl)N3)cc1C,-13.4%,-2.82%,-21.6%,-18%,-18.9%
COc1nc(C)c(C(=O)NC2CC(c3cc(=O)[nH]c(C)n3)C2)s1 (stereo not given),-3.07%,-6.59%,2.19%,-1.61%,-1.01%
COCCc1noc(CNC(=O)C2COc3ccccc3C2)n1 (stereo not given),-3.5%,-5.79%,-1.25%,-11.2%,-5.49%
CC(c1cccs1)N(C)C(=O)c1ccccc1Cl (stereo not given),-1.57%,-5.75%,-0.058%,-17.9%,-6.6%
O=[N+]([O-])c1cc(Cl)ccc1S(=O)(=O)N1CCN(Cc2ccccc2)CC1,8.14%,2.75%,11.5%,-12.4%,-6.21%
CC(=O)Nc1c2n(c3ccc(F)cc13)CC(C)(C(=O)NCCC(C)C)N(Cc1ccccc1C)C2=O (stereo not given),-3.07%,0%,-2.36%,3.66%,-4.42%
Cc1cn2nc(C(=O)NC3CCCC3)cc2c(N2CCSCC2)n1,-4.82%,-1.7%,-4.32%,-2.44%,2.61%
O=C(Cn1ccc2cc(S(=O)(=O)N3CCCCC3)ccc21)NCc1cccc(F)c1,-2.66%,0.198%,-2.38%,-5.38%,-5.67%
CN1CCN(CCCN2C(=O)c3cc4occc4n3CC2(C)C(=O)NC2CCCCCCC2)CC1 (stereo not given),3.03%,3.9%,-1.68%,3.78%,-1.76%
COCCN1CCCC2(CCN(C(=O)CN3C(=O)CNC3=O)C2)C1=O (stereo not given),3.73%,-0.682%,-0.008%,-1.42%,-19.5%
Cc1ccccc1NC(=O)CSc1nnc2n(CC(C)C)c(=O)c3ccc(C(=O)NCC(C)C)cc3n12,3.9%,0%,7.79%,6.61%,2.26%
CSc1ccc(CCNC(=O)c2cc3n(n2)CC(C)(C(=O)NC2CCCCCC2)N(C)C3=O)cc1 (stereo not given),3.98%,-3.76%,-1.01%,0.057%,-11.4%
